# In article PMC4336329 (PLoS ONE, 2015):
# Screen size: about 310,000 compounds; about 14,000 (4.5%) showed an effect of 50% or more. The effect is printed as a negative number. The list shows a part of the results.
# Target: human ether-à-go-go-related gene (hERG) potassium channel (human, UniProt Q12809)
# Test: primary screen, population patch clamp on CHO cells stably expressing hERG
# 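Further: peak tail current of the secondary pulse compared with the same well before compound.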
# Sequence of human ether-à-go-go-related gene (hERG) potassium channel (Q12809 whole entry, looked up): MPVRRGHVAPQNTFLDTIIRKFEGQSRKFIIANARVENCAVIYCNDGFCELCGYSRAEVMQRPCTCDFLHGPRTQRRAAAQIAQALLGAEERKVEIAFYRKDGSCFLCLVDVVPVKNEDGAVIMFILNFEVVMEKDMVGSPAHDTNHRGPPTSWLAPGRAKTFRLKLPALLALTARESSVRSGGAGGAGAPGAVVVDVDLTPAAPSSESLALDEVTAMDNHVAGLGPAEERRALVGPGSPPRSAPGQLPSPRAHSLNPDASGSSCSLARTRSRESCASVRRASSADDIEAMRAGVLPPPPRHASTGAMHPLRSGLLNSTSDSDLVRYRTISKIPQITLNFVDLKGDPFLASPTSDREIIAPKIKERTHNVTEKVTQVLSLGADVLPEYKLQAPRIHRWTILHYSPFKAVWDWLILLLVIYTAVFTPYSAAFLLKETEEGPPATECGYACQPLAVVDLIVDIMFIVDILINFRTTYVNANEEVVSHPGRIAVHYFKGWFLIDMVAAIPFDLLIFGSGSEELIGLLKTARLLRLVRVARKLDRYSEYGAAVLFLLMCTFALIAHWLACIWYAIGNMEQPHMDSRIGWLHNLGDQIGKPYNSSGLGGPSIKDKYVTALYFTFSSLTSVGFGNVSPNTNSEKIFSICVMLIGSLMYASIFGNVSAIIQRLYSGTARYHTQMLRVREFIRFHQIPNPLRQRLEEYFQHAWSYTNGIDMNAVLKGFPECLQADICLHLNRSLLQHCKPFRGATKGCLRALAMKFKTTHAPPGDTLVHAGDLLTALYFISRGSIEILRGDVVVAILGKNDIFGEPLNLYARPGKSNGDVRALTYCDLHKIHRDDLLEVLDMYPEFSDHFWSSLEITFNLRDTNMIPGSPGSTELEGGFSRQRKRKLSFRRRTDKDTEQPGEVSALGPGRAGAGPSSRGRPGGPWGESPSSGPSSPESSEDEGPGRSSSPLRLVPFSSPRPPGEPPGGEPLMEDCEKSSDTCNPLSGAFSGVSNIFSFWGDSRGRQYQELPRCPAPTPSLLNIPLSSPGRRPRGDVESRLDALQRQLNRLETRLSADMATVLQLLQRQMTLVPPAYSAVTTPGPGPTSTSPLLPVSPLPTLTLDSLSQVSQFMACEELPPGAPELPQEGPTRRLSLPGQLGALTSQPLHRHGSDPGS
row,SMILES,"hERG current change (%, negative = inhibition) at 10uM [%]"
1,O=C(Cn1cc([N+](=O)[O-])cn1)Nc1ccn(Cc2c(F)c(F)cc(F)c2F)n1,-11.7
2,COc1ccc(NC(=S)Nc2ccc(N(C)C(C)=O)cc2)cc1,4.86
3,COc1cc(C(=O)Nn2c(C)nc3ccccc3c2=O)cc(OC)c1OC,12.8
4,O=C1CC(c2ccco2)Cc2nc(N3CCN(Cc4ccc5c(c4)OCO5)CC3)ncc21 (stereo not shown),-33.1
5,CN(Cc1ccccc1)C(=O)CCS(=O)(=O)c1ccc2c(c1)oc(=O)n2C,3.61
6,COc1ccc(OCCNC(=O)CSc2ccc(C(F)(F)F)cc2[N+](=O)[O-])cc1,-12.4
7,Cc1ccccc1OCC(O)Cn1c(NCCN(C)C)nc2c1c(=O)n(C)c(=O)n2C (stereo not shown),-20.3
8,Cc1c(C(=O)OCC(=O)NCCN2C(=O)CSC2=O)oc2c1ccc1ccccc12,-7.84
9,CC1CCN(S(=O)(=O)c2cccc(C(=O)Nc3nncs3)c2)CC1,-7.49
10,O=C(CNC(=O)c1ccc2ccccc2c1)NCc1ccc(F)cc1,8.64
11,COc1ccccc1CNCc1ccc(OC)c(OC)c1OC.O=C(O)C(=O)O,-8
12,CCCNC(=O)NC(=O)CSc1ccc2c(c1)OCCO2,11.4
13,O=C1c2ccc(Oc3ccc4c(c3)C(=O)N(CCCO)C4=O)cc2C(=O)N1CCCO,-1.78
14,CCNc1nc(NCC)nc(N/N=C/c2ccc(OC)cc2)n1,6.24
15,COCCCNC(=O)CNC(=O)c1nn(-c2ccc(OC)cc2)c(=O)c2ccccc12,11.1
16,COc1ccc(OC)c(N(CC(=O)N2CCN(Cc3ccccc3)CC2)S(C)(=O)=O)c1,5.68
17,COc1cccc(C2C(C(=O)c3cc4ccccc4o3)=C(O)C(=O)N2CCN(C)C)c1OC (stereo not shown),0.215
18,COc1ccc(NC(=O)C2CCCN(S(=O)(=O)c3ccc4c(c3)CCCN4C(C)=O)C2)cc1 (stereo not shown),9.31
19,COc1cc(/C=N/NS(=O)(=O)c2ccccc2)c(OC)c(OC)c1,16.7
20,COc1cccc(NC(=O)CSc2nnc(-c3cccc(OC(C)C)c3)n2N)c1,13.5
21,O=C(O)CSc1c2c(nc3cc(C(=O)Nc4ccc(F)c(Cl)c4)ccc13)CCCC2,6.45
22,Cc1cc(Cl)c2oc(C(=O)N(C)Cc3cc(C)[nH]n3)c(C)c2c1,0.344
23,COc1ccc(Nc2ncnc3sc(-c4ccccc4)cc23)cc1,-31.6
24,O=C(CCn1c(=O)oc2ccccc21)N1CCN(C(c2ccccc2)c2ccccc2)CC1,-14.6
25,C/C(=N\Nc1ccc(C#N)cc1[N+](=O)[O-])c1ccc(O)cc1,-0.692
26,CN1C(=O)NC(c2ccccc2)C2=C1CN(CCc1ccccc1)C2=O (stereo not shown),-0.00352
27,Clc1ccccc1Cc1noc(CN2CCN(c3cnccn3)CC2)n1,-14.8
28,CCc1nnc(NC(=O)c2cc(-c3ccc(C)o3)nc3ccccc23)s1,-15.3

row,SMILES,"hERG current change (%, negative = inhibition) at 10uM [%]"
1,Cc1ccnc(NC(=O)c2cc(-c3ccc(Cl)s3)nc3ccccc23)c1,4.31
2,CC(C)(C)c1ccc(C(=O)Nc2cccnc2)cc1,-18.7
3,COCCOC(=O)C1=C(C)NC(=O)NC1c1ccc(-c2ccc(F)cc2)o1 (stereo not shown),3.95
4,Cc1cc(C)nc(N/N=C/c2cc(Br)ccc2O)n1,17.4
5,O=C(CCN1C(=O)C2C3CCC(C3)C2C1=O)Nc1ccc([N+](=O)[O-])cc1 (stereo not shown),-32.8
6,CSc1ccc(Cl)c(C(=O)OCC(=O)NCc2ccco2)c1,3.4
7,CC(=O)c1ccc(-c2ccc(C(=O)NCC(c3ccc(F)cc3)N3CCOCC3)o2)cc1 (stereo not shown),-38.8
8,O=C(O)Cn1c(-c2ccccc2)cc2ccccc21,14.1
9,Cc1cc(C(F)(F)F)n2nc(-c3sccc3-n3cccc3)cc2n1,6.05
10,CCOC(=O)C1CCN(C(=O)CCCN2C(=O)c3ccccc3C2=O)CC1,-13.5
11,CCOC(=O)CN(C(=O)COc1nc(-c2ccccc2)cc(C)c1C#N)c1ccccc1,15.9
12,COc1ccc(Cl)cc1NC(=O)NC(C)C,11.8
13,NC(=O)C1CCN(CCC(=O)Nc2cccc(Cl)c2)CC1,0.151
14,C1=C(c2c[nH]c3ccccc23)CCN(Cc2ccccc2)C1,-49.2
15,CC(C)(C)NS(=O)(=O)c1ccc2[nH]c3c(c2c1)CCCCC3,7.24
16,O=C(CNC(=O)c1ccc(Br)o1)NC1CCCCC1,19.8
17,Cc1ccc(C(=O)NCCN2C3=NC[C@H](C)N3C[C@H]2Cc2ccc(O)cc2)cc1Br,-8.85
18,Cc1onc(-c2ccccc2)c1C(=O)OCCOc1ccc([N+](=O)[O-])cc1[N+](=O)[O-],-17.9
19,CCCc1ccc2oc(C(=O)N(Cc3nccn3C)C(C)C)c(C)c2c1,-48.4
20,Cc1c(NC(=O)COC(=O)Cc2ccc(Cl)cc2)c(=O)n(-c2ccccc2)n1C,-1.5
21,CCOC(=O)C(Cc1c(F)cccc1Cl)c1ccno1 (stereo not shown),9.08
22,O=C(O)c1cccc2cccnc12,3.37
23,CCCc1cc(=O)oc2cc(C)cc(OC(C)C(=O)NCCCN3CCOCC3)c12 (stereo not shown),-5.19
24,C/C(N)=C(/C#N)C(=O)CSc1nc2ccccc2[nH]1,-7.3
25,COc1cccc(N2CCN(c3nc(-c4ccccc4C)cc(=O)[nH]3)CC2)c1,3.88
26,Cc1ccc(O)c(C(=O)CC(=O)c2ccc(Cl)cc2)c1,24.5
27,C#CCOCCOCCOCCNc1nc(N2CCOCC2)nc(N2CCN(C(=O)Cn3cc(CCC[NH+]=C(N)N)nn3)CC2)n1.[Cl-],19.2
